Measurements taken from the supplement of paper PMC3334620.
Over roughly 33,000 sequences, “E-score (-0.5 to 0.5)” has its median near -0.041; the highest 2% begin near 0.37. The list shows a part of the results.

Each sequence was assayed against T1, Ecm22 (UniProt Q05958) (assay: PBM E-score (8-mer binding enrichment) (E-score (-0.5 to 0.5)); higher = stronger / more preferred TF binding; most listed sequences are background and not binding sites). Conditions: protein concentration: 200 nM; construct: GST-full length.
T1 sequence: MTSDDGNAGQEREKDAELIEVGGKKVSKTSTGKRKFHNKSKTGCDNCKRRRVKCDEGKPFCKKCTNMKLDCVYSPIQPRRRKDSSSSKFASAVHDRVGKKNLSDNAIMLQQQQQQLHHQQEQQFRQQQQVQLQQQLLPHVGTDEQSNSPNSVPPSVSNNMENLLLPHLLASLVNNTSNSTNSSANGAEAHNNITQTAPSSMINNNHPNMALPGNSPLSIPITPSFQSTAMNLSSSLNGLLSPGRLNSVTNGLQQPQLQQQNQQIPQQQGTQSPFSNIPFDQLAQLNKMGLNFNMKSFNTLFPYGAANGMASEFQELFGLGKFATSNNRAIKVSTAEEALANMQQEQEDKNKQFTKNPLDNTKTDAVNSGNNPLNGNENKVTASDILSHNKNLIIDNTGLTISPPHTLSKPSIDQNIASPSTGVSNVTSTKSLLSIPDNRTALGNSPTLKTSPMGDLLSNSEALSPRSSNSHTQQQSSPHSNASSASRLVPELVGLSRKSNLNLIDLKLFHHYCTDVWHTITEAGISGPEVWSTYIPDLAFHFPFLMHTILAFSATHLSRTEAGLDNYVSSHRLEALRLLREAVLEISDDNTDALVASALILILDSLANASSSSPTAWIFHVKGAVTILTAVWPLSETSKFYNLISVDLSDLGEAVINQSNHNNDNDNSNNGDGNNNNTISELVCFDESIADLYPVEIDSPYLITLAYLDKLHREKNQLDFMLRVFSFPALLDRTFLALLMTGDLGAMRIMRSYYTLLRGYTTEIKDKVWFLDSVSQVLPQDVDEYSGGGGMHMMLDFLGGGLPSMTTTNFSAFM
How it was run: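 Yeast transcription factors carrying a GST tag, as full-length proteins or DNA-binding domains, were produced by PURExpress in vitro transcription/translation. About 100-200 nM protein was applied to universal all-10-mer Agilent arrays, double-stranded by primer extension on fresh or once-stripped slides. Bound protein was detected with fluorescent anti-GST, and scans were normalised with masliner. The Universal PBM Analysis Suite gave each ungapped eight-base word, pooled with its reverse complement, an E-score, a modified Wilcoxon-Mann-Whitney statistic.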

| Sequence | PBM E-score |
| --- | --- |
| AATCGTAC | 0.458 |
| AATAGGAC | -0.0712 |
| GTGAGAAA | -0.105 |
| CCGCCAAC | -0.163 |
| CCACGGGG | -0.209 |
| AAAGAGTT | -0.264 |
| AAACAACC | -0.0595 |
| GTTAGAAA | -0.127 |
| GCCGTACA | 0.371 |
| CCCGCATA | 0.169 |
| AGAGAGGA | -0.19 |
| CTTAAGCA | -0.191 |
| ATTTCTGC | 0.178 |
| AGCCAATG | -0.141 |
| ACCGTTAG | -0.0284 |
| CCTATTAA | -0.0475 |
| AATATGAC | 0.0385 |
| ACTCGTGG | -0.114 |
| CTCTCAGA | -0.235 |
| CAGATAAC | -0.159 |
| GAGGAGGA | -0.00253 |
| CCCTGCCG | -0.219 |
| AATTATTG | -0.0942 |
| ACCGGTAA | -0.0467 |
| GTGTCGTA | 0.445 |

| Sequence | PBM E-score |
| --- | --- |
| CCCGGACA | -0.00282 |
| TAACGTAA | 0.151 |
| ATCCAGCC | -0.107 |
| CTTATGTA | -0.00821 |
| ACACGCGA | 0.191 |
| TAGATTCA | 0.061 |
| CAACTAGC | -0.0218 |
| GTGCGTCA | -0.239 |
| CTTTTAAC | 0.053 |
| GGTACGCA | 0.263 |
| GTGCCGTA | 0.33 |
| CGGACAGA | 0.218 |
| CCGAACTA | -0.0209 |
| CACGAGAC | 0.0819 |
| ATTCAGAG | -0.0403 |
| GTCGGTCA | 0.258 |
| ACGCCTAG | -0.107 |
| CGGGTCAC | 0.16 |
| AAACGGTT | 0.262 |
| CGTATCAG | 0.338 |
| AGAATCGA | -0.00414 |
| AAAGTCCG | -0.00499 |
| ACCTCCAT | -0.0854 |
| CCCGTTCG | 0.196 |
| AGACTGAA | -0.19 |

| Sequence | PBM E-score |
| --- | --- |
| AACTTGGT | 0.0861 |
| AAAAAGCA | -0.0954 |
| GAGTTCAC | 0.0701 |
| TACCAATA | 0.0209 |
| AAAGGATG | 0.00531 |
| AAAGTCAC | 0.0189 |
| CCACATAG | -0.14 |
| TCACTACA | -0.0736 |
| CCCCCTAA | -0.094 |
| CTTAGCGC | 0.0883 |
| CAGTAAGG | -0.211 |
| AAACGAAT | 0.453 |
| AGAACGAC | 0.425 |
| ACCGTGCT | -0.228 |
| GGACCGCC | -0.107 |
| TCGGATCA | 0.217 |
| CTCCTGAC | -0.315 |
| CGCTCGAC | -0.0268 |
| AGTATTGG | -0.139 |
| CAGGTATG | -0.0672 |
| AAACGTAA | 0.194 |
| ATATCACA | -0.196 |
| CACGGGTA | -0.0789 |
| CAAGGGAC | -0.255 |
| AGATGGTA | -0.0824 |

| Sequence | PBM E-score |
| --- | --- |
| AGCGTCTG | -0.165 |
| ACCCTTAG | -0.253 |
| ATCGTTCC | 0.478 |
| TATTCAGA | 0.00759 |
| CTGCTAAA | -0.118 |
| AGTTACAT | -0.262 |
| GCGGGACA | -0.135 |
| CGTGGCGC | 0.0496 |
| AATTCCCA | -0.0276 |
| GTTAGAGA | -0.12 |
| AAACTAGA | -0.0931 |
| CTCTACTC | -0.0652 |
| AGAACTTA | -0.0305 |
| CTTTCGAA | 0.101 |
| ATAGGTAC | 0.205 |
| AGACCATG | -0.252 |
| ACCTAGGG | -0.0682 |
| ATAATACA | 0.153 |
| CGAACAAC | 0.252 |
| CGTCAGCC | 0.152 |
| GATGAACC | -0.0354 |
| ATAGTCCG | 0.0396 |
| GATGGGCC | 0.0139 |
| AGTCATAG | -0.195 |
| GATGGCTA | -0.0273 |

| Sequence | PBM E-score |
| --- | --- |
| TGAACACA | 0.083 |
| TAAGAGAA | -0.00589 |
| CCCTTTCG | 0.0713 |
| AACTTCAC | 0.0636 |
| AGTTCTAG | -0.203 |
| AGGCTAGC | -0.215 |
| AACTGGGG | -0.113 |
| CAGCCAAG | -0.163 |
| ATGTAACG | 0.101 |
| AAAGACAC | 0.00812 |
| ATACTACC | -0.129 |
| CGCAGCGA | 0.18 |
| CGCGCGTC | 0.171 |
| ATTGTCGC | 0.0503 |
| ATATGAGG | -0.147 |
| AAGCAGTG | -0.186 |
| GGCCACAA | -0.172 |
| CGAAGCCC | 0.0749 |
| GAAACGGA | 0.256 |
| CGCAGGCC | -0.117 |
| GGGTCCCA | -0.149 |
| CCGGCACG | 0.0502 |
| AAAGCTAG | -0.197 |
| CTCGAGGC | -0.0703 |
| CGGCTAAG | -0.132 |

| Sequence | PBM E-score |
| --- | --- |
| CCTCTATA | -0.0379 |
| ACGAAAAA | 0.249 |
| CCCCGCAG | -0.0795 |
| ACGGCTAG | 0.0605 |
| AACCCATT | -0.074 |
| CCTGATGC | -0.0632 |
| GGTGACTA | 0.0186 |
| ACTGTATG | 0.092 |
| CGGCCAGA | -0.192 |
| GGGATCCA | -0.126 |
| CACGTCAC | -0.154 |
| CGTGTAGA | 0.243 |
| TGCGAGCA | 0.238 |
| CAATATAA | 0.0331 |
| ATATAACG | 0.107 |
| CGTACGGC | 0.385 |
| AAGAGTCG | 0.0683 |
| AGGTGACG | -0.0182 |
| ATACCCAG | -0.201 |
| ATTGAACA | -0.0167 |
| CCCGAGAA | 0.0887 |
| AAGGGTAA | -0.079 |
| GATGGTCA | -0.213 |
| CCGAACGC | 0.0747 |
| ACACGAGG | 0.324 |

| Sequence | PBM E-score |
| --- | --- |
| CCAGAGGA | -0.192 |
| AAATCAGG | -0.0883 |
| CCTCCGAG | 0.00229 |
| TGCAAGAA | -0.0877 |
| GGATCGGA | 0.159 |
| GAATGGAA | 0.0415 |
| CTTAGATC | -0.0158 |
| CTGAACAA | 0.0971 |
| CGAAATCG | 0.111 |
| ACAGCTGA | -0.0667 |
| ACGTCGGA | 0.138 |
| AGAATTAT | -0.0094 |
| CATGGACG | -0.227 |
| CGCGCCGC | -0.0283 |
| CGCTCCCG | 0.222 |
| CTGTGCCA | -0.185 |
| ACCAACCC | -0.0808 |
| AGTCGGGC | 0.077 |
| ACTGCTCC | -0.225 |
| GGAGCTGA | -0.13 |
| AACGCGTG | 0.115 |
| CTTAAAAA | -0.137 |
